According to paper PMC6727365:
Results are given in words; binding and its absence hold for the method and conditions named. In cells and extracts the contact can be indirect. Some entries that bind do so weakly or less than the wild type. Values belong to the substance of their own block, whether it stands above or below them.

Amino acid sequences for entries named in this document (tags omitted). A change or cut given only in a name is not applied to a line headed by its entry. Chains listed by the source or under a name are the forms on record and can include a tag or linker. Residues count along the entry.
UniProt Q8IZP0: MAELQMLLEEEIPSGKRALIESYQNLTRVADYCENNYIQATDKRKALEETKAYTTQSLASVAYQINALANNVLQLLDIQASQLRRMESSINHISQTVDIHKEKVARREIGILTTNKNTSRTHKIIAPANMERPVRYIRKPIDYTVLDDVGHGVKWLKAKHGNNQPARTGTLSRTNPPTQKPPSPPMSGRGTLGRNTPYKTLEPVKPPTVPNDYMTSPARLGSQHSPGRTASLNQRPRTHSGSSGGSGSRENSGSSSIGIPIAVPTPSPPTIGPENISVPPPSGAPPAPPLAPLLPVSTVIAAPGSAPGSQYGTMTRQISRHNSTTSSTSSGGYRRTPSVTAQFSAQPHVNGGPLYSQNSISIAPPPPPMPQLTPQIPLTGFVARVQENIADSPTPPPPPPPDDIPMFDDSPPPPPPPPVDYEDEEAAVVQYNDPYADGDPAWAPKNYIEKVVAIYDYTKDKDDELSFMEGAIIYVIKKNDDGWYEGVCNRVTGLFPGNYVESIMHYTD
HA-tagged WAB region of ABI1 (aa 1-79): residues 1-79 of Q8IZP0
HA-tagged SNARE region of ABI1 (aa 45-107): residues 45-107 of Q8IZP0
HA-tagged HHR region of ABI1 (aa 93-169): residues 93-169 of Q8IZP0
HA-tagged proline-rich region of ABI1 (aa 170-340): residues 170-340 of Q8IZP0
HA-tagged poly-proline+PxxDY region of ABI1 (aa 341-425): residues 341-425 of Q8IZP0
HA-tagged poly-proline region of ABI1 (aa 341-418): residues 341-418 of Q8IZP0
HA-tagged SH3 region of ABI1 (aa 419-508): residues 419-508 of Q8IZP0
UniProt Q12929: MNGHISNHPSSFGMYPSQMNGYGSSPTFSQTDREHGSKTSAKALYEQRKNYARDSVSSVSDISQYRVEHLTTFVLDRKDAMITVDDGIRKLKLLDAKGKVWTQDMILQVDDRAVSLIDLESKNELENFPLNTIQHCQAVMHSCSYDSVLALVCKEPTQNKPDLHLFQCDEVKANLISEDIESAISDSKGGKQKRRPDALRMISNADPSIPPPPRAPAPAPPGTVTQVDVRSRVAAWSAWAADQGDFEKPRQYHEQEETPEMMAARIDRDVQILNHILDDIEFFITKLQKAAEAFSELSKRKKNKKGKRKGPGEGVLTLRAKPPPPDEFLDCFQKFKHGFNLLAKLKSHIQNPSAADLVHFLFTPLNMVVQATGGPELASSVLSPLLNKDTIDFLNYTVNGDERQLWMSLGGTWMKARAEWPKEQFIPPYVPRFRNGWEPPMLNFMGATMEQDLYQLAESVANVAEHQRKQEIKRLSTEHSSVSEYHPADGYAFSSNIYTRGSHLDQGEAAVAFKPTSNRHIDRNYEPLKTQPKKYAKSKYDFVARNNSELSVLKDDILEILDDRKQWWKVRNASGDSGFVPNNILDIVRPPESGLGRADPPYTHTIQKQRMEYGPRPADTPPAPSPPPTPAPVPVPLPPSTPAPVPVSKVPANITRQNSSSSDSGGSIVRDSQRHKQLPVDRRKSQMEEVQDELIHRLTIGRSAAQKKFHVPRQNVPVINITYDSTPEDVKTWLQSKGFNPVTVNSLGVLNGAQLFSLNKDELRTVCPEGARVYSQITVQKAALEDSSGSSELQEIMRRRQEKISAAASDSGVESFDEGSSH

Columns and labels:
HA-tagged ABI1 (human) = HA-tagged ABI1 (human) (UniProt Q8IZP0); experiment: co-IP; OVCAR3 cells (no ABI1 expression) co-transfected with tagged constructs (HA-ABI1 or its regions, Flag-SOS1 or its region, Myc-EPS8 or its region); 12 h starvation, 20 μM LPA; lysates
[1] = target: GST-fused SH3 region of ABI1 (human) (UniProt Q8IZP0); experiment: pull-down; GST-fused ABI1 fragments on beads incubated with LPA-treated OVCAR3 cell lysates for 2 h; immunoblot for SOS1 or EPS8; only the target purified
[2] = target: GST-ABI1 (on beads) (human) (UniProt Q8IZP0); experiment: pull-down; GST-ABI1 beads with LPA-stimulated SK-OV3 cell lysates to which peptides (10 μM) were added 1 h before; immunoblot for SOS1 or EPS8; only the target purified
[3] = target: GST-ABI1 (on beads) (human) (UniProt Q8IZP0); experiment: pull-down; data not shown: GST-ABI1 beads with SK-OV3 cell lysates and 15-aa peptides (10 μM); immunoblot for SOS1; only the target purified
[4] = target: ABI1 (endogenous, SK-OV3 cells) (human (endogenous in SK-OV3)) (UniProt Q8IZP0); experiment: co-IP; endogenous proteins; SK-OV3 cells treated with LPA for 5 min; lysate incubated with anti-ABI1 antibody at 4 °C overnight, then beads; western blot with anti-SOS1 or anti-EPS8
[5] = target: GST-fused poly-proline+PxxDY region of ABI1 (human) (UniProt Q8IZP0); experiment: pull-down; GST-fused ABI1 fragments on beads incubated with LPA-treated OVCAR3 cell lysates for 2 h; immunoblot for SOS1 or EPS8; only the target purified
[6] = target: HA-tagged poly-proline region of ABI1 (aa 341-418) (human) (UniProt Q8IZP0); experiment: co-IP; OVCAR3 cells (no ABI1 expression) co-transfected with tagged constructs (HA-ABI1 or its regions, Flag-SOS1 or its region, Myc-EPS8 or its region); 12 h starvation, 20 μM LPA; lysates
[7] = target: HA-tagged SH3 region of ABI1 (aa 419-508) (human) (UniProt Q8IZP0); experiment: as above
[8] = target: HA-tagged SNARE region of ABI1 (aa 45-107) (human) (UniProt Q8IZP0); experiment: as above
[9] = target: HA-tagged HHR region of ABI1 (aa 93-169) (human) (UniProt Q8IZP0); experiment: as above
[10] = target: HA-tagged poly-proline+PxxDY region of ABI1 (aa 341-425) (human) (UniProt Q8IZP0); experiment: as above
[11] = target: HA-tagged WAB region of ABI1 (aa 1-79) (human) (UniProt Q8IZP0); experiment: as above
[12] = target: HA-tagged proline-rich region of ABI1 (aa 170-340) (human) (UniProt Q8IZP0); experiment: as above

binding (HA-tagged ABI1 (human)): binds
Substance: Myc-tagged SH3 region of EPS8 (aa 535-586) (from UniProt Q12929 535-586) (domain or fragment)

binding [1]: binds
Substance: SOS1 in OVCAR3 cell lysate (from UniProt Q07889 1-1333)

binding [2]: binds
binding [3]: binds
binding [4]: binds
Substance: SOS1 (endogenous, SK-OV3 cells) (from UniProt Q07889 1-1333)

binding [4]: binds
Substance: EPS8 (endogenous, SK-OV3 cells) (from UniProt Q12929 1-822)

binding [5]: binds
Substance: EPS8 in OVCAR3 cell lysate (from UniProt Q12929 1-822)

binding [6]: no binding
binding [7]: no binding
binding [8]: no binding
binding (HA-tagged ABI1 (human)): binds
binding [9]: no binding
binding [10]: binds
binding [11]: no binding
binding [12]: no binding
Substance: Myc-tagged EPS8 (from UniProt Q12929 1-822)

binding [6]: no binding
binding [7]: binds
binding [8]: no binding
binding (HA-tagged ABI1 (human)): binds
binding [9]: no binding
binding [11]: no binding
binding [12]: no binding
Substance: Flag-tagged SOS1 (from UniProt Q07889 1-1333)

binding (HA-tagged ABI1 (human)): binds
Substance: Flag-tagged proline-rich region of SOS1 (aa 1131-1333) (from UniProt Q07889 1131-1333) (domain or fragment)
